Measurements reported in the supplement of paper PMC10126150.
Sequences with one replicate were seen in a single cluster, so their values are uncertain.

Tested on: ATP
Assay: switch fluorescence ratio, 500 uM ATP over buffer (Cy3 cluster intensity, sum of 5 cycles each) (fold (ratio)); higher = stronger signal-on switching upon ATP binding; sequences stand for … in TCGTCGGCAGCGTCAGATGTGTATAAGAGACAGTTTTTTTTTTTTTTTTTTTTTTTTT…TC
Conditions: aptamer strand: ATP DNA aptamer (quencher-CACCTGGGGGAGTATTGCGGAGGAAGG + anchor), 100 nM annealed; ATP concentration: 500 uM; one replicate
How it was run: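 Values give the fluorescence ratio for each switch-domain sequence, averaged from per-cluster ratios of summed target-cycle to summed buffer-cycle Cy3 intensity. The Cy3-labelled switching-strand clusters sat on a modified Illumina MiSeq flow-cell, were annealed to 100 nM quencher-labelled ATP aptamer, and were imaged in selection buffer, then after 15 min with 500 uM ATP at 22 °C. Five cycles ran with NaOH stripping and re-annealing between them, and clusters outside 100-1000 RFU were excluded.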
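Also: ATP exposure 15 min at 22 °C before imaging.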

Row | Sequence | switch fluorescence ratio
1 | GCCTCGGTT | 1
2 | CGAGACCATA | 1.09
3 | TTTTCCCCAC | 2.16
4 | CAATTAATCT | 1
5 | TGAGGGGA | 1.03
6 | AATTTTCGCG | 0.943
7 | CGGACCGGG | 0.972
8 | ACTGTAAAGA | 1.06
9 | CATACTCCTC | 1.5
10 | CAGACGCATA | 4.26
11 | CCCTTTTT | 1.08
12 | CGAAAGGGA | 0.975
13 | GGTATATTGA | 1
14 | ACGTCATG | 1.51
15 | TTTTTAACG | 0.975
16 | CCAGACAATT | 1.01
17 | TGTATTATCC | 0.995
18 | GGGTTCGGG | 0.998
19 | CGCGTCCCTG | 0.97
20 | GGGGGCTTAA | 0.998
21 | TCGACATTAC | 3.86
22 | CTTGGTAGAG | 0.964
23 | ATATCGCCTA | 0.994

Row | Sequence | switch fluorescence ratio
24 | ACAGGACTCA | 1.09
25 | CTTTTAAAGA | 0.936
26 | ACATCCTGGA | 1.02
27 | AGAGTTCGAT | 1.02
28 | ATTAAATCGC | 0.994
29 | ATTGCAATAA | 1.05
30 | TATGTAAACC | 1.03
31 | GCCCCAATAG | 3.4
32 | GGATGGTGAC | 0.961
33 | CAAAATAGTC | 1.07
34 | ATAAGCACAA | 1.2
35 | TGGCATAGGG | 1.09
36 | CAGGAGTTGC | 1.05
37 | ATTGGGTGGC | 1.02
38 | TGTTGCTACT | 0.999
39 | ATCCTCAAGT | 1.05
40 | CGAACGTACC | 1.55
41 | ATAATTAGTT | 1
42 | GCCTGTTGGC | 0.97
43 | GGTGACGCGT | 0.978
44 | TGACTGTTGT | 1
45 | GGTGTGATCG | 0.96
46 | AGAGCTAAAG | 0.976

Row | Sequence | switch fluorescence ratio
47 | CGTTTCTGAC | 0.986
48 | AGGACGTCGG | 1.06
49 | GCTCGGATCG | 0.954
50 | ATCTCGTTAT | 0.986
51 | GTGTGGGCCG | 1.01
52 | GGGACACCCT | 1.14
53 | CATCATTCA | 0.97
54 | TGTGATGGGG | 0.973
55 | ATGGTAGAGA | 0.994
56 | GCCCGAGACT | 1.01
57 | TTATCAGCGA | 1.05
58 | TTCGTTGGGA | 0.993
59 | GCAACTCCCG | 2.74
60 | TATGAGGCAA | 2.92
61 | CCCGGACTAG | 1.04
62 | TTGGGGGCTG | 0.953
63 | CTATTCGGT | 1.03
64 | AGATTATTAG | 1
65 | GAAATCGGTT | 0.948
66 | CAGATAGGAT | 1.01
67 | TCATTGAACG | 1.02
68 | TCATCGATGT | 0.972
69 | CAGTTGGGGA | 1.01

Row | Sequence | switch fluorescence ratio
70 | TTCTTCCGCG | 1.27
71 | CGCACAGACA | 1.4
72 | CCTCCCCCCG | 2.37
73 | TCTGTTAAC | 1.01
74 | CCCAGTTGGT | 1.14
75 | CCTAACGATG | 1.14
76 | TATTTTGG | 1.04
77 | TGATGTAATT | 1.01
78 | TCGTTCCATA | 1.03
79 | CGGGGTAGAG | 0.988
80 | TCATTAAAGT | 1.16
81 | ATGCCAATAG | 1.09
82 | GTAAAATAGT | 0.998
83 | TACTTGCCT | 1.07
84 | AGAGCGGAAG | 0.963
85 | CGGTTAGCAG | 0.97
86 | AGAGATCAAA | 1.01
87 | ATAGTTAGCA | 0.991
88 | TTGTAGCTGC | 1.16
89 | AGGCTTGAGC | 1.07
90 | GGAGATCTTC | 0.971
91 | GACTCGCCCG | 0.969
92 | GATGTGCAC | 1.15

Row | Sequence | switch fluorescence ratio
93 | AATGGAATGT | 0.989
94 | CGCAATTGGG | 2.4
95 | CCAAGTGGGT | 1
96 | TCTAGTGT | 0.98
97 | GGCTAAACGG | 0.974
98 | CTTATGGGCA | 1.01
99 | CATACTCCGT | 1.19
100 | ATTTATCTGG | 0.975
101 | CCCAGACTAC | 1.55
102 | TTCCAGGGAC | 0.992
103 | CCTATAAGTC | 1.03
104 | AAGAGGTCTG | 0.99
105 | GCTCTCATCT | 0.989
106 | CCAGTAGGAA | 1.02
107 | TGTTACAGGG | 0.958
108 | TTCGATATTG | 1.01
109 | AGTCAGACAG | 0.98
110 | TGCCTCTGTT | 1.05
111 | GCTCGGAATG | 1.04
112 | GTCCAAGTCG | 1.04
113 | CACCGCGTTT | 1.47
114 | AGTGTCGTCG | 0.969
115 | ACGCTCAGCA | 1.1

Row | Sequence | switch fluorescence ratio
116 | ACGCCGTAGA | 1.06
117 | AGGATCAGCG | 1.02
118 | ACGTGACCGC | 1.26
119 | GTTGCAGCTA | 1.01
120 | AATAGAATGC | 0.901
121 | AGTTCACGTG | 1.06
122 | CGCCTAGTTG | 1.03
123 | CACTAGCGCA | 1.02
124 | CGTCTAGTTC | 0.999
125 | TTGGTTTTAC | 1.24
126 | GCCATGGGTT | 1.01
127 | CCTGCTAGAG | 1.39
128 | AGCCGCTCGC | 1.18
129 | TCGCTCGTTA | 1.01
130 | GAACTCGTGT | 1.04
131 | CAGTCCCTGC | 1.08
132 | AGGGCGCCAT | 1.02
133 | GTTCCAACCT | 1.48
134 | GGTCATTTTA | 0.979
135 | TCGGAAGGTA | 1.02
136 | TTTTAGCCAA | 0.978
137 | CATCAACCTA | 1
138 | GTTGCTAAAC | 1

Row | Sequence | switch fluorescence ratio
139 | CATAACTATC | 0.99
140 | GATAGTTCAT | 0.991
141 | AATAATACTA | 1.05
142 | CCGAGACTTA | 1.25
143 | CGAGCGGCGG | 0.918
144 | AACTGGATCC | 1.02
145 | AATCTTTGAC | 0.948
146 | CGCTGTTATC | 1.05
147 | TGGTGTACG | 1.01
148 | TCTTTTTTCG | 1.02
149 | GTGCAGGGCA | 0.971
150 | TCTGGTATGT | 1.05
151 | CTTAGCTGGC | 1.04
152 | ATGTCCGATA | 0.973
153 | ACCGGACTGC | 1.24
154 | GCGACTACCG | 0.959
155 | TGCGAGGTGC | 1.26
156 | GCACCTGGCA | 1.03
157 | AAAGCATCGG | 1.01
